The results in this text go back to paper PMC9911399, “Two distinct binding modes provide the RNA-binding protein RbFox with extraordinary sequence specificity”.

T1: RBFOX1 RRM (Homo sapiens, UniProt Q9NWB1 109-208)
T1 sequence: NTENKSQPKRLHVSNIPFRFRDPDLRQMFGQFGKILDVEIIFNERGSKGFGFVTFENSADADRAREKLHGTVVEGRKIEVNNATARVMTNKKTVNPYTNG

B1: CGGCUAC (DNA:RNA)
RNA: GGGAGACCGGAAUUCAGAUUGUCCCGGCUACUUAAAUCCCGUCGUAGCCACCA
DNA 1: CAATCTGAATTCCGGTCTCCC
DNA 2: TGGTGGCTACGACGGGATT
B2: UCUCAUC (DNA:RNA)
RNA: B1 RNA with C25U, G26C, G27U, U29A, A30U
DNA 1: CAATCTGAATTCCGGTCTCCC
DNA 2: TGGTGGCTACGACGGGATT
B3: UUACUCG (DNA:RNA)
RNA: B1 RNA with C25U, G26U, G27A, A30C, C31G
DNA 1: CAATCTGAATTCCGGTCTCCC
DNA 2: TGGTGGCTACGACGGGATT
B4: ACCGGGU (DNA:RNA)
RNA: GGGAGACCGGAAUUCAGAUUGUCCACCGGGUUUAAAUCCCGUCGUAGCCACCA
DNA 1: CAATCTGAATTCCGGTCTCCC
DNA 2: TGGTGGCTACGACGGGATT
B5: AAUGGUG (DNA:RNA)
RNA: B4 RNA with C26A, C27U, G30U, U31G
DNA 1: CAATCTGAATTCCGGTCTCCC
DNA 2: TGGTGGCTACGACGGGATT
B6: CAACGAU (DNA:RNA)
RNA: B1 RNA with G26A, G27A, U29G, C31U
DNA 1: CAATCTGAATTCCGGTCTCCC
DNA 2: TGGTGGCTACGACGGGATT
B7: GCUUGCG (DNA:RNA)
RNA: B4 RNA with A25G, C27U, G28U, G30C, U31G
DNA 1: CAATCTGAATTCCGGTCTCCC
DNA 2: TGGTGGCTACGACGGGATT
B8: ACCAUGU (DNA:RNA)
RNA: B4 RNA with G28A, G29U
DNA 1: CAATCTGAATTCCGGTCTCCC
DNA 2: TGGTGGCTACGACGGGATT
B9: UCGACAC (DNA:RNA)
RNA: B1 RNA with C25U, G26C, C28A, U29C
DNA 1: CAATCTGAATTCCGGTCTCCC
DNA 2: TGGTGGCTACGACGGGATT
B10: GUCCUAU (DNA:RNA)
RNA: B1 RNA with C25G, G26U, G27C, C31U
DNA 1: CAATCTGAATTCCGGTCTCCC
DNA 2: TGGTGGCTACGACGGGATT
B11: CGUAAUA (DNA:RNA)
RNA: B1 RNA with G27U, C28A, U29A, A30U, C31A
DNA 1: CAATCTGAATTCCGGTCTCCC
DNA 2: TGGTGGCTACGACGGGATT
B12: UGCCGCC (DNA:RNA)
RNA: B1 RNA with C25U, G27C, U29G, A30C
DNA 1: CAATCTGAATTCCGGTCTCCC
DNA 2: TGGTGGCTACGACGGGATT
B13: CACGCUG (DNA:RNA)
RNA: B4 RNA with A25C, C26A, G29C, G30U, U31G
DNA 1: CAATCTGAATTCCGGTCTCCC
DNA 2: TGGTGGCTACGACGGGATT
B14: UGGAUGG (DNA:RNA)
RNA: B1 RNA with C25U, C28A, A30G, C31G
DNA 1: CAATCTGAATTCCGGTCTCCC
DNA 2: TGGTGGCTACGACGGGATT
B15: CUAGCAG (DNA:RNA)
RNA: B1 RNA with G26U, G27A, C28G, U29C, C31G
DNA 1: CAATCTGAATTCCGGTCTCCC
DNA 2: TGGTGGCTACGACGGGATT
B16: CGUCGUC (DNA:RNA)
RNA: B1 RNA with G27U, U29G, A30U
DNA 1: CAATCTGAATTCCGGTCTCCC
DNA 2: TGGTGGCTACGACGGGATT
B17: AAGGGUU (DNA:RNA)
RNA: B4 RNA with C26A, C27G, G30U
DNA 1: CAATCTGAATTCCGGTCTCCC
DNA 2: TGGTGGCTACGACGGGATT
B18: CUUAACC (DNA:RNA)
RNA: B1 RNA with G26U, G27U, C28A, U29A, A30C
DNA 1: CAATCTGAATTCCGGTCTCCC
DNA 2: TGGTGGCTACGACGGGATT
B19: AUACCCA (DNA:RNA)
RNA: B4 RNA with C26U, C27A, G28C, G29C, G30C, U31A
DNA 1: CAATCTGAATTCCGGTCTCCC
DNA 2: TGGTGGCTACGACGGGATT
B20: UCGGCUC (DNA:RNA)
RNA: B4 RNA with A25U, C27G, G29C, G30U, U31C
DNA 1: CAATCTGAATTCCGGTCTCCC
DNA 2: TGGTGGCTACGACGGGATT

Substitutions are numbered along the chain they refer to; changes in the protein carry UniProt numbers. The list shows a part of the results.

This experiment concerns the target T1, RBFOX1 RRM. Description: EMSA; HiTS-Eq, 1 nM pool, 10 min; buffer printed only for the single-RNA assays: 10 mM Tris pH 7.5, 150 mM NaCl, 3.4 mM EDTA, 0.001% NP-40, 30 C. The conditions noted are these: tags: His6 N-terminal (pET28a); label: 5' 32P. A digest of the protocol:
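A pool of RNA with 7 randomized nucleotides, 5′-radiolabelled and with DNA-annealed flanks, was equilibrated at 1 nM for 10 min in 50 µL with purified RbFox RRM, wild type or mutant, across increasing protein concentrations. Free RNA was separated by 8% native PAGE, excised, reverse-transcribed, barcoded by PCR and sequenced. Relative association constants were obtained from read-count changes of each RNA species versus the control reaction and normalised to the cognate motif.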
A general note: A gel shift assay detects complexes by their altered migration in electrophoresis.
B1: the binding signal is 0.0135 KA relative to UGCAUGU. Regarding B2, the binding signal is 0.00276 KA relative to UGCAUGU. Next, B3: 0.00965 KA relative to UGCAUGU; B4: 0.013 KA relative to UGCAUGU. As to B5, the binding signal was 0.0191 KA relative to UGCAUGU. As for B6, the binding signal is 0.00177 KA relative to UGCAUGU. In the case of B7, the binding signal was 0.0193 KA relative to UGCAUGU. As to B8, the binding signal is 0.00472 KA relative to UGCAUGU. For the molecule B9, the binding signal is 0.00706 KA relative to UGCAUGU. Next, B10: 0.00778 KA relative to UGCAUGU; B11: 0.00197 KA relative to UGCAUGU. Turning to B12, the binding signal is 0.0177 KA relative to UGCAUGU. Take B13: the binding signal is 0.00694 KA relative to UGCAUGU. The same measure for B14: 0.0304 KA relative to UGCAUGU; for B15: 0.0101 KA relative to UGCAUGU; for B16: 0.00977 KA relative to UGCAUGU. As for B17, the binding signal was 0.0138 KA relative to UGCAUGU. On to B18, for which the binding signal is 0.00103 KA relative to UGCAUGU. For B19, the binding signal was 0.000387 KA relative to UGCAUGU. Next, B20: 0.0172 KA relative to UGCAUGU.
